Results taken from PMC12529666.
Only a part is listed here, and it is no random draw. At the low end of the ranking, values are background and their order means little. The list shows a part of the results.

Experiments:
[1] = molecular target: AGO2 WT (phosphosite mutant background) S387D + S824A + S828D + S831D + S834A (UniProt Q9UKV8); test: RNA Bind-n-Seq (nitrocellulose filter binding and sequencing); conditions: constant regions annealed to DNA blockers; guide miR-122 5' phosphate; 30 mM Tris pH 8.0, 100 mM potassium acetate, 2 mM magnesium acetate, 0.5 mM TCEP, 0.005% NP-40, 0.01 mg/ml yeast tRNA; 3 nM AGO2-miR-122, 100 nM RNA library …; high values mean tight binding
[2] = molecular target: AGO2 F182del S387D + S824A + S828D + S831D + S834A + del182-182 (UniProt Q9UKV8); test: as above; conditions: constant regions annealed to DNA blockers; guide miR-122 5' phosphate; 30 mM Tris pH 8.0, 100 mM potassium acetate, 2 mM magnesium acetate, 0.5 mM TCEP, 0.005% NP-40, 0.01 mg/ml yeast tRNA; 3 nM AGO2-miR-122, 100 nM RNA library …; high values mean tight binding

Sequence	binding signal (fold enrichment over input) [1]	binding signal (fold enrichment over input) [2]
GAGUUCUACAGUCCGACGAUCCCAACGUAUUUCACACCUGGAAUUCUCGGGUGCCAA / UGGAGUGUGACAAUGGUGUUUG / GATCGTCGGACTGTAGAACTC / TTGGCACCCGAGAATTCCA	0.136	0.805
GAGUUCUACAGUCCGACGAUCCCAACAUGUUUCGCACCUGGAAUUCUCGGGUGCCAA / UGGAGUGUGACAAUGGUGUUUG / GATCGTCGGACTGTAGAACTC / TTGGCACCCGAGAATTCCA	0.0865	0.0399
GAGUUCUACAGUCCGACGAUCCCAACGUGCUUUGCACCUGGAAUUCUCGGGUGCCAA / UGGAGUGUGACAAUGGUGUUUG / GATCGTCGGACTGTAGAACTC / TTGGCACCCGAGAATTCCA	0.117	0.0494
GAGUUCUACAGUCCGACGAUCCCAACACGCUUUGCACCUGGAAUUCUCGGGUGCCAA / UGGAGUGUGACAAUGGUGUUUG / GATCGTCGGACTGTAGAACTC / TTGGCACCCGAGAATTCCA	0.0892	0.0465
GAGUUCUACAGUCCGACGAUCCCAACGCGCUCUACACCUGGAAUUCUCGGGUGCCAA / UGGAGUGUGACAAUGGUGUUUG / GATCGTCGGACTGTAGAACTC / TTGGCACCCGAGAATTCCA	0.108	0.0671
GAGUUCUACAGUCCGACGAUCCCAACACAUCCCGCACCUGGAAUUCUCGGGUGCCAA / UGGAGUGUGACAAUGGUGUUUG / GATCGTCGGACTGTAGAACTC / TTGGCACCCGAGAATTCCA	0.128	0.144
GAGUUCUACAGUCCGACGAUCCCAACAUGUUCUACACCUGGAAUUCUCGGGUGCCAA / UGGAGUGUGACAAUGGUGUUUG / GATCGTCGGACTGTAGAACTC / TTGGCACCCGAGAATTCCA	0.108	0.182
GAGUUCUACAGUCCGACGAUCCCAACGCAUCCUACACCUGGAAUUCUCGGGUGCCAA / UGGAGUGUGACAAUGGUGUUUG / GATCGTCGGACTGTAGAACTC / TTGGCACCCGAGAATTCCA	0.105	0.11
GAGUUCUACAGUCCGACGAUCCCAACACGUCUCGCACCUGGAAUUCUCGGGUGCCAA / UGGAGUGUGACAAUGGUGUUUG / GATCGTCGGACTGTAGAACTC / TTGGCACCCGAGAATTCCA	0.0885	0.0559
GAGUUCUACAGUCCGACGAUCCCAACAUGUCCCGCACCUGGAAUUCUCGGGUGCCAA / UGGAGUGUGACAAUGGUGUUUG / GATCGTCGGACTGTAGAACTC / TTGGCACCCGAGAATTCCA	0.0871	0.0432
GAGUUCUACAGUCCGACGAUCCCAACGUACUUUGCACCUGGAAUUCUCGGGUGCCAA / UGGAGUGUGACAAUGGUGUUUG / GATCGTCGGACTGTAGAACTC / TTGGCACCCGAGAATTCCA	0.0877	0.0379
GAGUUCUACAGUCCGACGAUCCCAACGCGUCCUGCACCUGGAAUUCUCGGGUGCCAA / UGGAGUGUGACAAUGGUGUUUG / GATCGTCGGACTGTAGAACTC / TTGGCACCCGAGAATTCCA	0.0991	0.0426
GAGUUCUACAGUCCGACGAUCCCAACGUACCCUACACCUGGAAUUCUCGGGUGCCAA / UGGAGUGUGACAAUGGUGUUUG / GATCGTCGGACTGTAGAACTC / TTGGCACCCGAGAATTCCA	0.0972	0.0684
GAGUUCUACAGUCCGACGAUCCCAACAUAUCUUGCACCUGGAAUUCUCGGGUGCCAA / UGGAGUGUGACAAUGGUGUUUG / GATCGTCGGACTGTAGAACTC / TTGGCACCCGAGAATTCCA	0.099	0.0543
GAGUUCUACAGUCCGACGAUCCCAACGUGUCCUGCACCUGGAAUUCUCGGGUGCCAA / UGGAGUGUGACAAUGGUGUUUG / GATCGTCGGACTGTAGAACTC / TTGGCACCCGAGAATTCCA	0.0878	0.0349
GAGUUCUACAGUCCGACGAUCCCAACACAUUUUACACCUGGAAUUCUCGGGUGCCAA / UGGAGUGUGACAAUGGUGUUUG / GATCGTCGGACTGTAGAACTC / TTGGCACCCGAGAATTCCA	–	0.359
GAGUUCUACAGUCCGACGAUCCCAACAUACUCCACACCUGGAAUUCUCGGGUGCCAA / UGGAGUGUGACAAUGGUGUUUG / GATCGTCGGACTGTAGAACTC / TTGGCACCCGAGAATTCCA	–	8.59
GAGUUCUACAGUCCGACGAUCCCAACACAUCUUGCACCUGGAAUUCUCGGGUGCCAA / UGGAGUGUGACAAUGGUGUUUG / GATCGTCGGACTGTAGAACTC / TTGGCACCCGAGAATTCCA	0.0934	0.0749
